Laboratory results reported in the supplement of paper PMC10126150.
Sequences with one replicate were seen in a single cluster, so their values are uncertain.

Tested on: ATP
Assay: switch fluorescence ratio, 500 uM ATP over buffer (Cy3 cluster intensity, sum of 5 cycles each) (fold (ratio)); higher = stronger signal-on switching upon ATP binding; sequences stand for … in TCGTCGGCAGCGTCAGATGTGTATAAGAGACAGTTTTTTTTTTTTTTTTTTTTTTTTT…TC
Settings: aptamer strand: ATP DNA aptamer (quencher-CACCTGGGGGAGTATTGCGGAGGAAGG + anchor), 100 nM annealed; ATP concentration: 500 uM; one replicate
Method in brief: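 Switching-strand clusters labelled with Cy3 on a modified Illumina MiSeq flow-cell were annealed to 100 nM quencher-labelled ATP aptamer, imaged in selection buffer, and re-imaged after 15 min with 500 uM ATP at 22 °C. This was done over five cycles with NaOH stripping and re-annealing in between. The fluorescence ratio is summed target-cycle over summed buffer-cycle Cy3 intensity per cluster, averaged per switch-domain sequence, excluding clusters outside 100-1000 RFU.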
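Also: ATP exposure 15 min at 22 °C before imaging.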

| Sequence | switch fluorescence ratio |
| --- | --- |
| ATCCACTGGT | 1.04 |
| ACTTCTGCAA | 0.781 |
| GGAGGGCTTA | 0.99 |
| ATGGTGAACT | 1.01 |
| AGCGATGGGG | 1.05 |
| TGTCGCCCGC | 1.03 |
| AAGCTATTAC | 3.82 |
| TCGACGACCG | 0.966 |
| GCCGTGGGTT | 0.948 |
| TATATAGACT | 1.01 |
| AGCGTAGGTG | 1.03 |
| CGTAATCTAG | 0.971 |
| CGTATTGAAG | 0.993 |
| ATGGATCACG | 1.04 |
| GCGTCTGATG | 0.978 |
| TCGTGAGTTA | 0.959 |
| CAAAACGTGG | 0.981 |
| TTCCGGGG | 1.39 |
| GTGGCTTACT | 1.02 |
| AAGTCCTCGA | 0.993 |
| ATCCCAAAGG | 1.11 |
| CATCAATCGA | 0.988 |
| AGGTGTCACT | 0.976 |
| ATAAAATGTG | 0.996 |
| GCATGCCGAC | 0.993 |
| GTGGGTGG | 1.01 |

| Sequence | switch fluorescence ratio |
| --- | --- |
| GGGGCGTCGG | 0.971 |
| TAAGTACAAT | 1.26 |
| GTCATGGGGT | 0.993 |
| GACAGGCTG | 0.883 |
| AACTGTCTTT | 0.999 |
| GGTTTCGTGG | 0.931 |
| ACGCGAAAAT | 1.17 |
| GAACCGATGG | 1.07 |
| CTCCCGGGTT | 1.24 |
| TCTAATTTCA | 0.942 |
| TAGAAGCGTC | 1.05 |
| GTGAGAAAGC | 1.04 |
| GACGTTCAGC | 1.07 |
| CTTAAAAGCT | 1.15 |
| GCGTTGATGC | 1.03 |
| TGTATGCCTC | 1.02 |
| AAGAAATATA | 0.984 |
| GGATATATGT | 1 |
| TAGATAACGC | 1.02 |
| GTTTCCTTTG | 1.07 |
| TCTAGACTAT | 0.961 |
| AGTATGTAC | 1.06 |
| AAATATAGGG | 0.951 |
| AATCGTACTT | 1.05 |
| GCCTGAAGCA | 0.995 |
| TGTTAATTCC | 1.02 |

| Sequence | switch fluorescence ratio |
| --- | --- |
| GAGATTCGG | 0.94 |
| GTGAAATTAG | 1 |
| GACCTAATGT | 1.15 |
| GGGTTTTCCC | 1.08 |
| CGGGGCTATA | 1.05 |
| TTGGCCGCAG | 1.08 |
| GGATTGGGTA | 0.943 |
| CTTAAAAGG | 1 |
| CTTTATGGCT | 1.01 |
| ACGCGAGGTC | 1.17 |
| TTTGTGCAT | 0.992 |
| TTCCAGTGGT | 1.05 |
| CTCGTGCGCC | 1.06 |
| GTTAAAATAA | 0.954 |
| TAAAAATTCC | 1.1 |
| TAGATCGGCG | 1.04 |
| GACTGATATC | 1.03 |
| TAGGGAATCG | 0.994 |
| ACCTTTGGGT | 0.979 |
| CACCGGAATT | 2.01 |
| ATCTTATGCA | 0.962 |
| CGTGATTAA | 1.01 |
| CCCTTCTCGG | 1.05 |
| GACATTGAGG | 0.99 |
| CTCCATCGCC | 1.11 |
| AGGTCCGTTT | 1.01 |

| Sequence | switch fluorescence ratio |
| --- | --- |
| CTGCCGCCTG | 1.07 |
| CCAGTGGGGT | 1.01 |
| CGTTGAATTG | 0.927 |
| AGCAAATGGC | 1.15 |
| CATATTGCGT | 1.02 |
| ACGATTCTTC | 0.985 |
| TTTGTTGCTA | 0.976 |
| GTCAGTCGCT | 0.976 |
| ACGAAAGGCG | 1.02 |
| GCCAACTGCA | 1.03 |
| GCGCTAGGGA | 1 |
| CCGATTGGGG | 1.02 |
| AACTGTCGCT | 1.06 |
| CCATAAGATG | 0.998 |
| TAGAAGCTTA | 1.33 |
| CAGCATCCAA | 1.06 |
| CGGCTTTTGA | 0.947 |
| CGTTGGCCT | 0.991 |
| GCAACTGATA | 0.99 |
| TAACCTTTGC | 1.31 |
| ACCAACTTGA | 1.32 |
| TTGTTGTAGA | 0.984 |
| GGGCCCCAGG | 1.19 |
| AACCCCTGGA | 1.03 |
| CGGTAGGGTC | 1 |
| AAGATCATAT | 1.08 |

| Sequence | switch fluorescence ratio |
| --- | --- |
| CGGTAGAGGC | 1 |
| TTTACGCCTT | 1.05 |
| TTTAGAGTAA | 1.01 |
| ACCCGGACCC | 1.07 |
| CAACAGAATC | 0.988 |
| TAGGCTTTT | 0.969 |
| TGGGTTTAAG | 1.01 |
| CCAATGGGTA | 1.03 |
| GTGTATCGA | 0.989 |
| ACGGACCTTG | 1.01 |
| TTCCGCCCCC | 0.997 |
| GGAGCGTGTC | 0.973 |
| GTTGCCCGCA | 1.04 |
| GCGAATAGCA | 0.987 |
| ACGGGAAGCA | 1.05 |
| GGGTAGGTAT | 1.11 |
| ACTAGCTTCT | 1.01 |
| GTGGTTGCTC | 1 |
| ACAGCCGTTT | 1.05 |
| AAGTCTGACT | 1.01 |
| TAATAGAGAC | 0.977 |
| TGTACGAGGC | 1.04 |
| TTGATGACCA | 1 |
| ACACTGAAAT | 1.04 |
| ATGTTGTGCG | 0.976 |
| AGTCATATGA | 0.953 |

| Sequence | switch fluorescence ratio |
| --- | --- |
| ATGCGTTATT | 0.981 |
| TGGGCCCGTT | 1.01 |
| TGGATGTGGA | 1 |
| TTATGTATTC | 1.02 |
| TAACGGCCCA | 1.01 |
| CGGTAGTCAA | 1.56 |
| GGTACGTCCA | 1.05 |
| ATGTTTGCCC | 0.993 |
| TCCTAAAAG | 1.1 |
| GGAGATTGTC | 0.957 |
| TTCTTGGTTT | 0.978 |
| ATGCAGAATA | 1.01 |
| CATAATCAAG | 0.995 |
| CGCCAATGAT | 1.07 |
| TTGTTGAGCG | 0.986 |
| GGGACTTTGT | 1.02 |
| CCACTATCAC | 1.38 |
| ATCGCTAGGT | 1.04 |
| AAATCTTGTG | 1.01 |
| ACTCTCGAGA | 1.03 |
| CACGACATT | 1.13 |
| GTGTACGCAG | 0.991 |
| TGCCCTTAAC | 1.03 |
| TCAGGCGCAG | 0.999 |
| ATGAGGCGGC | 1.06 |
| TAATGGCTA | 0.987 |

| Sequence | switch fluorescence ratio |
| --- | --- |
| GACAGTAAAT | 1.1 |
| TAACCTGTT | 1.23 |
| CGCACTTCAA | 1.09 |
| ACAGAAGTTG | 0.993 |
| GCAACGAATT | 0.994 |
| TTTGTCGGTT | 0.994 |
| GGGCCACCGT | 1 |
| AGTATTCT | 1.01 |
| TTCAGCTATT | 0.972 |
| TCTTCGTGAA | 4.06 |
| CTGACATGTA | 0.995 |
| GAGCTGGTGA | 0.978 |
| GGCGATGGCG | 1.01 |
| CGTCGACTTA | 1 |
| ACAGAGGGCT | 1.03 |
| TCATTAATAA | 0.99 |
| AAATGGAGAA | 1.05 |
| CATAGAGGAG | 0.989 |
| CCTCATAG | 1.4 |
| TGGACTACAC | 1.19 |
| CGAACGGGTC | 1.02 |
| CCTTGGTAG | 1 |
| GTAAGGCTTT | 1.02 |
| TGAAAAGTAG | 0.961 |
| GGGATGCAA | 0.971 |
| TAGCCGTACG | 0.992 |

| Sequence | switch fluorescence ratio |
| --- | --- |
| CTATTAGTAG | 1.02 |
| AGAGTGGCTA | 1.01 |
| GACCCCGTCA | 1.02 |
| TAGCGTTTCT | 0.979 |
| CAAGGGCCCC | 0.967 |
| ACAATGGTTG | 0.967 |
| CAGACGCCGC | 2.06 |
| TTTCTTACCG | 1.02 |
| CTAGTAAATG | 0.991 |
| TTATGTGCCC | 0.999 |
| CTGGCCAAAT | 0.99 |
| TCATCTGTA | 0.995 |
| GCGCTTTGGG | 1.03 |
| TTTTGCCAGA | 0.989 |
| GCACTTTGTG | 1 |
| GCCAGGGTAA | 0.995 |
| GGAATTCCGT | 0.995 |
| TGCCGCAGCC | 2.15 |
| GAGGGTGGGT | 0.953 |
